Source: article PMC4336329 (PLoS ONE, 2015)
Screen size: about 310,000 compounds; about 14,000 (4.5%) showed an effect of 50% or more. Effects have a minus sign here. The list shows a part of the results.

target: human ether-à-go-go-related gene (hERG) potassium channel (human, UniProt Q12809); assay: primary screen, population patch clamp on CHO cells stably expressing hERG
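Note: peak tail current of the secondary pulse compared with the same well before compound.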

Chain of human ether-à-go-go-related gene (hERG) potassium channel (Q12809 whole entry, looked up): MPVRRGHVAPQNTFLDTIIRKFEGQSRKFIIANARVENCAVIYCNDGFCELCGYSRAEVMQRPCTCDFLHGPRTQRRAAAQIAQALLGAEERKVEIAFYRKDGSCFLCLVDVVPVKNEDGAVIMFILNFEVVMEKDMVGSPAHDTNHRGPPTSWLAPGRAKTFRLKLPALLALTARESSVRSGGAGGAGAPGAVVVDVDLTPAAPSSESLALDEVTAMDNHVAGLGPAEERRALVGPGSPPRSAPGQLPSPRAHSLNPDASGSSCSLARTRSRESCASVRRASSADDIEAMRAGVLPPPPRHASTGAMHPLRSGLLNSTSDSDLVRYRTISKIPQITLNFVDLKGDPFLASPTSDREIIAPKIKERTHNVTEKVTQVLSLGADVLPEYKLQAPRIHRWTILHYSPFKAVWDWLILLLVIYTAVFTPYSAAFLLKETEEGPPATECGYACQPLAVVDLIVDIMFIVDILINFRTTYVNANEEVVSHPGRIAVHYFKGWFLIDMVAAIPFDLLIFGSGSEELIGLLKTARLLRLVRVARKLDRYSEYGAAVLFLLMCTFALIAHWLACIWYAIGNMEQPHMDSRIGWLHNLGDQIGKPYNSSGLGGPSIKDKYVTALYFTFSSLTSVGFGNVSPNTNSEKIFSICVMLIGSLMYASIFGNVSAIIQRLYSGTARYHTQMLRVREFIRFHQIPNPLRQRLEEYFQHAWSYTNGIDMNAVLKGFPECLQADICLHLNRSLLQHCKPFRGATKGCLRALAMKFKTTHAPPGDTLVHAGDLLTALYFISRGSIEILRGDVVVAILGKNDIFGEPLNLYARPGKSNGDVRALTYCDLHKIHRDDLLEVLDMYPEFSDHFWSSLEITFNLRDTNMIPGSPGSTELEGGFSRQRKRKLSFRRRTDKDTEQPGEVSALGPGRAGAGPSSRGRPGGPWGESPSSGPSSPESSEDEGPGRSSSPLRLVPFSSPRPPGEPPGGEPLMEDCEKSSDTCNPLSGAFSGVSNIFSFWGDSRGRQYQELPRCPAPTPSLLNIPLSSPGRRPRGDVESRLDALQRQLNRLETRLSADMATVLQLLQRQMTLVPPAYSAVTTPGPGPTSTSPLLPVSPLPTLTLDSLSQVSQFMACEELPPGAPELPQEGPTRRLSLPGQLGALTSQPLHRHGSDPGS

SMILES | hERG current change (%, negative = inhibition) at 10uM [%]
COc1ccccc1C1/C(=C(/O)c2ccccc2)C(=O)C(=O)N1CCO (centres unmarked) | 1.4
NS(=O)(=O)c1cccc(NS(=O)(=O)c2ccc(/C=C/C(=O)O)cc2)c1 | 23.3
COc1ccc(S(=O)(=O)N(C)CC(=O)N2CCN(c3ccccc3)CC2)cc1 | -30.5
O=C(CCNC(=O)c1ccccc1)OCN1C(=O)c2ccccc2C1=O | -5.38
CCOc1ccc(C2/C(=C(\O)c3ccc4c(c3)OCCO4)C(=O)C(=O)N2CCN2CCOCC2)cc1OC (centres unmarked) | 6.94
Clc1ccccc1-c1nnc(CNC2CC2)o1 | 15.6
COc1ccc(-c2csc(NC(CO)c3nc4ccccc4n3CCCO)n2)cc1 (centres unmarked) | -19.3
COc1ccc(C(CNC(=O)c2cccc(S(=O)(=O)Nc3ccc(C)cc3)c2)N2CCOCC2)cc1 (centres unmarked) | -20.2
CCOc1cc(/C=C2/C(=O)ON=C2C)ccc1OCc1ccccc1 | 15.1
c1ccc2c(c1)ncn2CCn1cnc2ccccc21 | -39.2
CN(Cc1cccc2ccccc12)C(=O)c1cc(COc2c(F)cccc2F)on1 | 24.6
CCNC(=O)N1CCCC(C(=O)c2ccc(C(F)(F)F)cc2)C1 (centres unmarked) | -23.4
CCOC(=O)c1oc2cccc(OC(C)=O)c2c1C | -3.5
COc1ccccc1CNC(=O)CN1c2cccc3cccc(c23)S1(=O)=O | -3.2
O=C(COC(=O)c1cccs1)NC12CC3CC(CC(C3)C1)C2 | -3.02
Cc1ccc(OP(=O)(NCc2ccccc2)Oc2ccc(C)cc2)cc1 | 3.24
COc1ccc(-c2nc(NC(=O)Cn3cnnn3)sc2C)cc1 | 18.3
COCCCN1CN(Cc2ccco2)CNC1=S | 11.3
Cc1ncc([N+](=O)[O-])n1CC(=O)Nc1ccc(F)c(F)c1 | 15
COC(=O)C1=C(NC(=O)c2ccc(C)cc2)CCS1 | -9.37
CC(C)c1ccc(N2C(=O)CC(=O)NC2=O)cc1 | 12.4
O=C(Nc1cccnc1)c1ccccc1O | -3.29
CN(CC(CC(=O)O)c1ccccc1)S(=O)(=O)c1ccc(Br)cc1 (centres unmarked) | 6.91

SMILES | hERG current change (%, negative = inhibition) at 10uM [%]
Cc1cc(C(=O)COC(=O)Cn2c(C(F)(F)F)nc3ccccc32)c(C)n1Cc1ccco1 | 11.8
N#Cc1ccccc1NC(=O)CSc1ccc([N+](=O)[O-])cn1 | 13.1
CC(C(=O)OCC(=O)N(C)C1(C#N)CCCCC1)N1C(=O)c2ccccc2C1=O (centres unmarked) | -21.1
CCn1c(C)c(C2=CCN(S(=O)(=O)c3ccc(C)cc3)CC2)c2ccccc21 | 0.962
O=S(=O)(Nc1ncccn1)c1ccc(Cl)cc1 | 18.1
CC1=CC(C)(C)Nc2ccc(OC(=O)c3cccnc3)cc21 | -5.62
COc1ccc2cc(C(=O)Nc3ccc(O)cc3)sc(=O)c2c1OC | 6.47
O=C(COc1ncnc2c(Cl)cc(Cl)cc12)NC1CCCCCC1 | 9.78
COc1ccc(CCNS(=O)(=O)c2c(C)nc3scc(C)n3c2=O)cc1OC | 9.68
COc1ccc(C(C)=O)cc1CSC(=N)N.Cl | 9.4
COc1ccc(CC(=O)Nc2c(C(N)=O)oc3ccccc23)cc1 | 20.9
CCC1(c2ccccc2)NC(=O)N(CC(=O)Nc2cc(S(=O)(=O)N3CCCCC3)ccc2N(C)C)C1=O (centres unmarked) | -18.3
Cc1ccnc(NC(=O)COc2ccc3c(c2)CCC3)c1 | -12.3
C=CCSc1nc(N)c(C(=O)Nc2ccccc2)cc1C#N | -3.16
O=C(NCc1ccccn1)NC12CC3CC(CC(C3)C1)C2 | 0.211
COc1ccc(/C(C)=N/N2CCCCC2)c(O)c1 | 13.5
CC1=CC=CN2C1=NC(=O)CC2(C)C(=O)N(CC(=O)NC1CCCC1)c1cc(C)cc(C)c1 (centres unmarked) | 43.3
Nc1ccc(N2C(=O)c3ccccc3C2=O)c(Cl)c1 | 8.05
O=C(NNC(=O)C1CCCN(c2ncccn2)C1)c1ccncc1 (centres unmarked) | 5.96
COC(=O)C(O)(CC(=O)Nc1cccc(SC)c1)C(F)(F)F (centres unmarked) | 8.38
Cc1c2n(c3ccccc13)CC/C2=N\O | -14.9
COc1cccc(N2CCN(C(=O)c3ccc(Cl)c(NC4=NC5CS(=O)(=O)CC5S4)c3)CC2)c1 (centres unmarked) | 22.8
Nc1cccc(-c2nc3cc(S(=O)(=O)c4ccc5oc(-c6cccc(N)c6)nc5c4)ccc3o2)c1 | -1.55

SMILES | hERG current change (%, negative = inhibition) at 10uM [%]
O=C(CCn1c(=O)sc2ccccc21)NCc1cccs1 | 1.8
CNC(=O)Cc1csc2ccc(C)cc12 | 4.2
CCc1ccc(CCC(=O)Nc2ccc(C)c(C)c2)o1 | -20.8
Oc1ccc(N=Nc2nccs2)c(O)c1 | 30.1
O=C(CCCC(=O)OCC(Cl)=C(Cl)Cl)Nc1cccc(F)c1 | -9.54
Cc1c(C(C)(C)C)s/c(=N/S(=O)(=O)c2ccccc2)n1C | 1.84
CC1(C)CC2C1CCC1(O)CC2(C)CCC1N(O)c1ccc(C(=O)NCCO)cn1 (centres unmarked) | 12.5
O=C(O)CCc1ccc(-c2cccs2)n1NC(=O)c1cccs1 | 22.3
CCCCOC(=O)C1[C@H]2C(=O)N(Cc3cccs3)C[C@]23C=C[C@H]1O3 (some centres unmarked) | -9.35
O=c1cc(-c2ccccc2)c2ccccc2[nH]1 | 2.17
CCOC(=O)c1c(S(=O)(=O)Nc2ccc(C)cn2)c(C)n(C)c1C | 19.6
COc1ccc2nc(NC(=O)C3CCN(C(=O)c4ccco4)CC3)sc2c1 | -6.31
CN(c1ccccc1)S(=O)(=O)c1ccc(Cl)c(C(=O)NCC(c2ccco2)N2CCCC2)c1 (centres unmarked) | -50.9
CC(C)OCCCn1c(=S)[nH]c2cc3c(cc2c1=O)OCO3 | 18.9
O=C(Cc1ccccc1)N[C@@H](Cc1ccccc1)C(=O)O | 7.29
COc1ccc(/C=C/c2nc(C#N)c(NCCN(C)C)o2)cc1OC | -6.02
CCc1ccc(OC(C)C(=O)N(Cc2ccco2)C2CCS(=O)(=O)C2)cc1 (centres unmarked) | -17.5
Cc1cc(OCc2cc(C(=O)N(C)Cc3ccccn3)no2)cc(C)c1Cl | -21.8
O=C(N/N=C/c1ccc2nccnc2c1)c1ccc(Br)cc1 | 10.7
O=Cc1cn(-c2ccccc2)nc1-c1ccncc1 | -33
CCn1cc(C(=O)N[C@@H](CCSC)C(=O)NCCCN2CCOCC2)c(=O)c2cc3c(cc21)OCO3 | 36.4
C=CCn1c(SCC(N)=O)nnc1-c1cc2c(s1)CCC(CC)C2 (centres unmarked) | -0.879
CCn1nc(C(=O)Nc2ccc(C)c(C)c2)c(Cl)c1Cl | 7.65

SMILES | hERG current change (%, negative = inhibition) at 10uM [%]
CN1CCN(c2c(F)cc3c(=O)c(C(=O)O)cn4c3c2SCC4)CC1 | -5.77
CC(NC(=O)COc1ccc(Oc2ccccc2)cc1)C(=O)O (centres unmarked) | -9.88
CCOC(=O)c1sc2nc(CC(=O)OC)nc(NCc3ccc(Cl)cc3)c2c1C | -7.35
Cc1ccc(OCc2ccc(C(=O)NCC3CCCO3)cc2)cc1C (centres unmarked) | -8.8
CCCC(=O)NCc1cc(-c2nn(C)c(=O)c3ccccc23)ccc1C | 5.42
CCOC(=O)c1c(S(=O)(=O)NCC(=O)Nc2ccccc2F)c(C)n(C)c1C | 21.3
O=c1[nH]c(CSc2nnnn2-c2ccccc2)nc2ccccc12 | 9.17
Cc1noc(C)c1COc1ccc(C(=O)N2CC(C)CC(C)C2)cc1 (centres unmarked) | -20.7
Cc1ccccc1Nc1nnc(SCC(=O)NC2CCCc3ccccc32)s1 (centres unmarked) | -21.3
COCC(C)NCC(=O)NC(C)CCc1ccccc1.O=C(O)C(=O)O (centres unmarked) | -17.1
Cc1ccccc1CS(=O)(=O)c1nnc([C@H](CC(C)C)NC(=O)OC(C)(C)C)o1 | -14.6
CCN(CCO)c1nc(N2CCCCC2)c2cnn(C)c2n1 | 3.12
CSc1ccc(CN2CCCC(CNC(=O)c3ccc(F)cc3)C2)cc1 (centres unmarked) | -70.8
COc1ccc(NC(=O)c2cccnc2)cc1 | -11.1
O=C(OCC(=O)N1CCN(C(=O)c2ccco2)CC1)c1cc(-c2ccc(F)cc2)nc2ccccc12 | -59.4
CC(=O)N1CCc2cc(S(=O)(=O)NC(CC(C)C)C(=O)Nc3cc(C(=O)O)ccc3C)ccc21 (centres unmarked) | 8.35
Cc1onc(-c2c(F)cccc2Cl)c1C(=O)N1CCCc2ccccc21 | -21.5
CCOC(=O)Nc1ccc2c(c1)nc(CN1CCCCC1)n2C | -7.84
N/C(=N\OC(=O)N1CCOCC1)c1ccccc1 | 0.112
CC(=O)Nc1cc(C(=O)N2CCC3(CC2)OCCO3)ccc1Sc1ccc(F)cc1 | 2.37
